Among the data in the RNAGym collection of RNA variant scans (doi:10.1093/nar/gkz1192) are self-cleavage values, retold here.

Read counts are not given, so values of variants with three or more changes are uncertain.

The chains are these.
B1: CPEB3 Ribozyme (parent)
chain: UAACAGGGGGCCACAGCAGAAGCGUUCACGUCGCAGCCCCUGUCAGAUUCUGGUGAAUCUGCGAAUUCUGCUGUAUAUCUC

The data set covers variants of B1. Put plainly: self-cleavage, relative activity (ratio to wild type); higher = more cleavage; in vitro, sequencing. Summed up:
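Libraries of CPEB3 self-cleaving ribozyme mutants came from rounds of error-prone PCR and carried barcodes, which DNA sequencing matched to variants. In vitro transcription used T7 RNA polymerase at 37°C for 5 hours, with a further 15 min in DNase I before EDTA stopped the reaction; the ribozymes cleaved during both steps. The RNA was reverse transcribed with template switching and sequenced on Illumina. Relative activity is the cleaved/total read fraction of a variant divided by that of the unmutated ribozyme, averaged over three batches with at least 5 reads.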
UAACAGGGGGCCACAGCAGAAGCGUUCACGUCGCAGCCACUGUCACAUUCUGGUGAAUCUGCGAAUUCUGCUGUAUGUCUC [C39A G46C A77G]: the self-cleavage stood at 0.15.

As to UAACAGGGGGCCACAGCAGAAGCGUUCACGUCGCAGCCGCUGACAGAUUCUGGUGAAACUGCGAAUCCUGCUGUGUAUCCC [C39G U43A U58A U67C A75G U80C], the self-cleavage stood at 0.04.

For UAACAGGGGGCCACAGCAGAAGCGUUCACGUCGCAGCCUCUGUCAGAUUCUGGUGAAUCUGCGGAUUCCGCUGUAUAUCUC [C39U A64G U69C], the self-cleavage came out at 0.13.

For UAACAGGGGGCCACAGCAGAAGCGUUCACGUCGCAGCCACUGUCAGAUUCUGGUGAAUCUGCGAAUUCUGCUGUAAAUCAC [C39A U76A U80A], the self-cleavage was determined as 0.36.

For UAACAGGGGGCCACAGCAGAAGCGUUCACGUCGCAGCCUCUGUCAGAUUCUGGUGAAUCUGCGGAUUCUGCCGUAUAUCUC [C39U A64G U72C], the self-cleavage is 0.41.

Turning to UAACAGGGGGCCACAGCAGAAGCGUUCACGUCGCAGCCGCUGUCAGAUUCUGGUGGAUCUGUGAACUCUGCUGUAUAUCCC [C39G A56G C62U U66C U80C], the self-cleavage came out at 0.1.

For UAACAGGGGGCCACAGCAGAAGCGUUCACGUCGCAGCCUCCGUCAGAUUCUGGUGAAUCUGCGAAUUCUGCUGUAUAUCCC [C39U U41C U80C], the self-cleavage amounted to 1.09.

As for UAACAGGGGGCCACAGCAGAAGCGUUCACGUCGCAGCCUCUGUCAGAUUCUGGGGAAUCUGCGAAUUCUGCUGUAUAUCCC [C39U U54G U80C], the self-cleavage worked out at 0.38.

With UAACAGGGGGCCACAGCAGAAGCGUUCACGUCGCAGCCACCGUCAGAUUCUGGUGAGUCUGCGAAUUCUGCUGUACAUCUC [C39A U41C A57G U76C], the self-cleavage was 0.15.

On to UAACAGGGGGCCACAGCAGAAGCGUUCACGUCGCAGCCUCUGCCAGAUUCUGGUGGACCUGCGAAUUCUGCUGUAUAUCUC [C39U U43C A56G U58C], for which the self-cleavage stood at 0.14.

Consider UAACAGGGGGCCACAGCAGAAGCGUUCACGUCGCAGCCCAUGUCAGUUUCUGGUGAAUCUGCGAAUCCUGCUGUAUAUCUC [C40A A47U U67C], for which the self-cleavage came out at 0.08.

On to UAACAGGGGGCCACAGCAGAAGCGUUCACGUCGCAGCCUCUGUCAGAUACGGGUGAAUCUGCGAAUUCAGCUGCAUAUCUC [C39U U49A U51G U69A U74C], for which the self-cleavage is 0.09.

UAACAGGGGGCCACAGCAGAAGCGUUCACGUCGCAGCCCAUGUCGGAUUCUGGUGAAUCUGCGAAUUCUGCUGUAUAUCCC [C40A A45G U80C]: the self-cleavage came to 0.09.

For the variant UAACAGGGGGCCACAGCAGAAGCGUUCACGUCGCAGCCUCUGACCGAUUCUGGUGAAUCUGCGAAUUCUGCUGUAUAUCUC [C39U U43A A45C], the self-cleavage was 0.11.

Consider UAACAGGGGGCCACAGCAGAAGCGUUCACGUCGCAGCCACUGUCAGACUCUGGCGAAUCUGCGAAUUCUGCUGUAUAUCUC [C39A U48C U54C], for which the self-cleavage is 0.09.

In the case of UAACAGGGGGCCACAGCAGAAGCGUUCACGUCGCAGCCUCUGUCAGAUUCUGGCGAAUCUGCGGAUUCUGCUGUAUAUCUC [C39U U54C A64G], the self-cleavage is 0.34.

With UAACAGGGGGCCACAGCAGAAGCGUUCACGUCGCAGCCUCUGUCAGAUUCUGGUGGAUAUGCGAAUUCUGCUGUAUAUCCC [C39U A56G C59A U80C], the self-cleavage was 0.16.

With UAACAGGGGGCCACAGCAGAAGCGUUCACGUCGCAGCCUCUGUCGGAUUCUGGUGAUUCUGCGAAUUCUGCUGUAUAGCUC [C39U A45G A57U U78G], the self-cleavage was 0.16.

Consider UAACAGGGGGCCACAGCAGAAGCGUUCACGUCGCAGCCACAGUCAGAUUCUGGUGAAUCUGCGAAUUCUGCUGUAAAUCUC [C39A U41A U76A], for which the self-cleavage was 0.08.

As for UAACAGGGGGCCACAGCAGAAGCGUUCACGUCGCAGCCAUUGUCAGUUUCUGGUGAAUCUGCGAAUUCUGCUGUAUAUCUC [C39A C40U A47U], the self-cleavage turned out to be 0.09.

On to UAACAGGGGGCCACAGCAGAAGCGUUCACGUCGCAGCCGCUGUCAGAUUCUGGUGAAUCUGCGUAUUCUGCAGUAUAUCUC [C39G A64U U72A], for which the self-cleavage amounted to 0.05.

With UAACAGGGGGCCACAGCAGAAGCGUUCACGUCGCAGCCGCUGUCAGAUUGUGGUGAAUCUGCGAAUUCUGCUGAAUAUCUC [C39G C50G U74A], the self-cleavage came to 0.05.

Regarding UAACAGGGGGCCACAGCAGAAGCGUUCACGUCGCAGCCUCUGCCGGUCUCUGGUGAAUCAGCGAAUUCUGCUGUAUAUCUC [C39U U43C A45G A47U U48C U60A], the self-cleavage is 0.18.

For UAACAGGGGGCCACAGCAGAAGCGUUCACGUCGCAGCCACUGCCAGAUUCUGGUGAAUCUGCGGAUUCUGCUGUAUACCUC [C39A U43C A64G U78C], the self-cleavage worked out at 0.06.

On to UAACAGGGGGCCACAGCAGAAGCGUUCACGUCGCAGCCGCUGUCAGAUUCUGGUGAGUCUGCGAAUUCUGCUGUAUACCUC [C39G A57G U78C], for which the self-cleavage was 0.13.

For the variant UAACAGGGGGCCACAGCAGAAGCGUUCACGUCGCAGCCGCUGACAGAUUCUGGUGAAUCUGCGAAUUAUGAUGUAUAUCUC [C39G U43A C68A C71A], the self-cleavage was 0.15.

On to UAACAGGGGGCCACAGCAGAAGCGUUCACGUCGCAGCCGCUGUCAGAUUCUGGUGAAUCUGCGUAUACUGCUGUAUAUCUC [C39G A64U U67A], for which the self-cleavage was determined as 0.09.

Take UAACAGGGGGCCACAGCAGAAGCGUUCACGUCGCAGCCACCGUCAGAUUCUGGUGAACCUGCGAAUUCAGCUGUAUAUCUC [C39A U41C U58C U69A]: the self-cleavage was 0.07.

Take UAACAGGGGGCCACAGCAGAAGCGUUCACGUCGCAGCCACUGUCAGAUACUGGUGAAUCUGCGAACUCUGCUGUAUAUCUC [C39A U49A U66C]: the self-cleavage amounted to 0.18.

As for UAACAGGGGGCCACAGCAGAAGCGUUCACGUCGCAGCCACUGUCAGAUUCUGGUGAAUCUGCGAAAUCUGCUCUAUAUCUC [C39A U66A G73C], the self-cleavage was 0.78.

In the case of UAACAGGGGGCCACAGCAGAAGCGUUCACGUCGCAGCCACUGUCAGAUUCUGGCGAAUCUGCGAACUCUGCUGUAUAUCUC [C39A U54C U66C], the self-cleavage is 0.14.

Turning to UAACAGGGGGCCACAGCAGAAGCGUUCACGUCGCAGCCACUGUCAGACUCGGGUGAAUCUGCGUAUUCUGCUGUAUAUCUC [C39A U48C U51G A64U], the self-cleavage was found to be 0.14.

As for UAACAGGGGGCCACAGCAGAAGCGUUCACGUCGCAGCCCAUGUCGGAUUCUGGUGGAUCUGCGAAUUCUGCUGUAUAUCUC [C40A A45G A56G], the self-cleavage was 0.24.

Regarding UAACAGGGGGCCACAGCAGAAGCGUUCACGUCGCAGCCACUGUCAGAUUCUGGUGAAUCAACGAAUUCUGCUGUAUACCUC [C39A U60A G61A U78C], the self-cleavage was determined as 0.43.
